Tests used:
human Claudin 18.1 = molecular target: T1, human Claudin 18.1 (Homo sapiens, UniProt P56856); test: Specificity by FACS, HEK293T-human Claudin 18.1 cells; format: binding; conditions: antibody 1000 nM
T1 construct: expressed in transfected cells; host or cells: HEK293T, infected with pLVX-IRES-puro lentivirus; clone HEK293T-Claudin 18.1-1C2
Method: (§1) The specificity of candidate antibodies was detected by FACS. The steps are as follows, HEK293T, HEK293T-human Claudin 18.1 and HEK293T-human Claudin18.2 cells were detached and then centrifuged. After washing twice with PBS, the cells were resuspended with PBS containing 1% BSA. 300,000 cells for each cell line were added with the candidate antibodies at a final concentration of 1000 nM, mixed well, and incubated for 1 h at 4° C., protected from light. Then the cells were washed for three times with PBS and FITC-labeled anti-human Fc secondary antibody (BioLegend, 409322) was added, followed by 0.5h of incubation at 4° C. in the dark. Detection was performed by flow cytometry (Beckman, Cytoflex) after washing with PBS for three times.

[1] = Pharmacokinetics in SCID mice; format: in vivo; conditions: 10 mg/kg intravenously
Method: Blood samples were taken 8 h, 1 d, 3 d, 8 d and 15 d after injection and serum antibody concentrations were determined by Cellular ELISA as described in Example 8. […] The data of mouse serum was subjected to curve fitting.

human Claudin18.2 [2] = molecular target: T2, human Claudin18.2 (Homo sapiens, UniProt P56856); test: Specificity by FACS, HEK293T-human Claudin18.2 cells; format: binding; set-up: expressed in transfected cells; host or cells: L929, infected with pLVX-IRES-puro lentivirus, puromycin-selected monoclonal line; cells were formaldehyde-fixed for the cellular ELISA; conditions: antibody 1000 nM
Method: as §1

[3] = tested on: HEK293T-Claudin 18.2 cells; test: CDC killing of HEK293T-Claudin 18.2 cells (guinea pig serum, CCK8); format: cell-based; conditions: 20% guinea pig serum, 3 h
Method: The procedure is described as follows: HEK293T-Claudin 18.2 cells were harvested and centrifuged followed by adjustment of cell density. 5×10^4/well of cells were plated on a plate and incubated overnight. […] Starting from 20 μg/mL, 10 concentrations were prepared with two-fold dilution. The original cell culture media for HEK293T-Claudin 18.2 cells was removed, and the antibody dilutions were added to the corresponding wells, 100 μL/well. 10 μl/well lysis buffer was provided as the positive control. The reactions were left to stand in incubator at 37° C., 5% CO2 and incubated for 3 h. Then, CCK8 (Rhinogen, QDY-003-D) was added at 20 μl/well and allowed to react for 2h. Absorbance at 450 nm were taken on a plate reader (MD, SpectraMax M2). The results were subjected to curve fitting by Graphpad Prism.

human Claudin18.2 [4] = molecular target: T2, human Claudin18.2; test: Cellular ELISA on L929-Claudin 18.2 cells; format: binding; set-up: expressed in transfected cells; host or cells: L929, infected with pLVX-IRES-puro lentivirus, puromycin-selected monoclonal line; cells were formaldehyde-fixed for the cellular ELISA
Method: Human Claudin18.2 is a four transmembrane protein and has a complex structure. Cellular ELISA was thus carried out to maintain the structure of Claudin18.2. The stable cell line L929-Claudin 18.2 constructed in Example 1 were used for detection. Specifically, L929-Claudin 18.2 adherent cells were detached by 2 mM EDTA treatment. The cells were resuspended and adjusted to 2×10^5/mL and 100 μL of the resuspension was plated into 96 well plate and incubated overnight at 37° C. The next day, the media was removed, and the plate was washed with PBS once. 100 μL/well 4% formaldehyde was added to the plate. After 30 min of incubation at room temperature, formaldehyde was removed, followed by washing twice with PBS. Blocking buffer (PBS containing 2% BSA) was then added to the plate at 100 μL/well, and incubated at 37° C. for 2 h. After removal of blocking buffer, 100 μL/well of serially diluted antibodies (starting from 1 μM, with 4-fold dilution, for a total of 11 concentrations) were added to the corresponding wells, which were incubated at 37° C. for 2h afterwards. The plate was washed with 250 μL PBST for 5 times, and was allowed to stand for 2 min each time. 100 μL/well of horseradish peroxidase labeled anti-Human IgG secondary antibody (HRP-anti-Human IgG, Jackson ImmunoResearch, 109-035-003) diluted 1:10000 in PBS (containing 2% BSA) was added to the plate. The plate was incubated at 37° C. for 1 h and washed with 250 μL PB ST 6 times, wherein the plate was allowed to stand for 2 min each time. 100 μL/well of TMB solution (Thermo, 34029) was added. The reactions were incubated at 37° C. for 20 min and stopped with 50 μL 2 mol/L H2504. The absorbance at 450 nm was read on a plate reader (MD, SpectraMax M2) and the results were subjected to curve fitting by Graphpad Prism.

L929-Claudin 18.2 cells = test: NK cell mediated ADCC on L929-Claudin 18.2 cells (LDH); format: cell-based; conditions: L929-Claudin 18.2 target cells, NK92MI-CD16a effector cells
Method: The steps were as follows: HEK293T-Claudin 18.2, L929-Claudin 18.2, KATOIII-Claudin 18.2 and NUGC-4 cells were harvested and centrifuged followed by adjustment of cell density. 1×10^4/well of cells were plated on a plate and incubated overnight. The medium was removed on the next day. NK92MI-CD16a cells (Huabo Biopharm) were centrifuged, resuspended in MEMA medium and adjusted to 1×10^6/mL, then 50 μL/well cells were added to the corresponding wells. […] For HEK293T-Claudin18.2, L929-Claudin18.2 and KATOIII-Claudin18.2 cells, ten antibody concentrations were tested, starting from 40 μg/mL with 5-fold dilution. For NUGC-4 cells, eleven antibody concentrations were tested, starting from 2 mg/mL with 5-fold dilution. 50 μL/well of the diluted antibodies were added to the corresponding wells and the reactions were left to stand in incubator at 37° C., 5% CO2 and incubated for 5.5h. Lysis buffer was then added to the positive control well and incubated for another 0.5h. 50 μL/well of Lactate Dehydrogenase (LDH) detection agent (DOJINDO LABORATORISE, CK12) were added to the wells and the absorbance at 490 nm were taken every 10 min on a plate reader (MD, SpectraMax M2). The results were imported into Graphpad Prism for curve fitting.

B1: 1E9.2-hz11: humanized antibody of 1E9.2; VH SEQ ID NO: 29, VL SEQ ID NO: 33; heavy chain SEQ ID NO: 102, light chain 103 (antibody)
heavy: EVQLVESGGGLVKPGGSLRLSCAASGFSFSNSAMSWVRQAPGKGLEWVSTISSGDSYTYYADSVKGRFTISRDNAKNSLYLQMNSLRAEDTAVYYCARQGYGNALDYWGQGTLVTVSS[sequence of human IgG1 constant region omitted]
light: DIVMTQSPDSLAVSLGERATINCKSSQSLLNSGNQKNYLTWYQQKPGQPPKLLIYWSSTRESGVPDRFSGSGSGTDFTLTISSLQAEDFAVYYCQNDYYYPLTFGGGTKVEIKRTVAAPSVFIFPPSDEQLKSGTASVVCLLNNFYPREAKVQWKVDNALQSGNSQESVTEQDSKDSTYSLSSTLTLSKADYEKHKVYACEVTHQGLSSPVTKSFNRGEC
modifications: heavy chain amino acid sequence of humanized antibody 1E9.2 hz11; light chain amino acid sequence of humanized antibody 1E9.2 hz11
- binding to human Claudin 18.1 (human Claudin 18.1): not human Claudin 18.1
- AUC [1]: 9088.87 µg·h/mL
- binding to human Claudin 18.2 (human Claudin18.2 [2]): specifically bind to human Claudin 18.2
- maximal killing rate (CDC) [3]: about 82%
- Max Signal Value (OD450) (human Claudin18.2 [4]; Table 8 experiment): 1 OD450
- Max Signal Value (OD450) (human Claudin18.2 [4]; Table 10 experiment): 0.8 OD450
- Max. Cytotoxicity (L929-Claudin 18.2 cells): 46%

From patent US12297265B2, “Antibody and use thereof” (SICHUAN KELUN-BIOTECH BIOPHARMACEUTICAL CO., LTD., priority 2018, dated 2025)
